Counter-ions that a name gives are not always drawn. ± gives the standard error. The whole screen tested about 1,300 compounds, of which about 130 (10%) showed an effect of 50% or more. This is a selection; strong and weak results do not stand in their true shares.
Tested on: Trichoderma virens ATCC 9645
Experiment: growth yield (OD600) with compound + IPBC relative to untreated control; higher = less growth inhibition
Conditions: compound concentration: 100 uM, IPBC concentration: 200 ng/ml
How it was run: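 Trichoderma virens ATCC 9645 spores from 7-day potato dextrose agar plates were suspended in potato dextrose broth at 15,000 spores ml^−1. Aliquots of 100 μl with library compounds at 100 μM final, with or without a co-applied biocide at 200 ng ml^−1, were grown in 96-well plates at 30 °C. OD600 was read at 40 h and 72 h on a BioTek EL800. Growth is expressed relative to the control without either agent, as means of duplicate screens.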

Row | Structure (SMILES) | growth yield (40 h) [%] | growth yield (72 h) [%]
1 | CC(=O)O[C@H]1C[C@H](O[C@H]2[C@@H](O)C[C@H](O[C@H]3[C@@H](O)C[C@H](O[C@H]4CC[C@@]5(C)[C@H](CC[C@@H]6[C@@H]5C[C@@H](O)[C@]5(C)[C@@H](C7=CC(=O)OC7)CC[C@]65O)C4)O[C@@H]3C)O[C@@H]2C)O[C@H](C)[C@H]1O[C@@H]1O[C@H](CO)[C@@H](O)[C@H](O)[C@H]1O [Lanatoside C] + CCCCNC(=O)OCC#CI [3-iodo-2-propynyl butylcarbamate (IPBC)] | 91 ± 2.1 | 91.35 ± 0.32
2 | CC(C)N1CCN(c2ccc(OCC3COC(Cn4cncn4)(c4ccc(Cl)cc4Cl)O3)cc2)CC1 (stereo unspecified) [Terconazole] + CCCCNC(=O)OCC#CI [3-iodo-2-propynyl butylcarbamate (IPBC)] | 69.9 ± 2.5 | 87 ± 1.3
3 | C[N+]1([O-])[C@@H]2C[C@@H](OC(=O)[C@H](CO)c3ccccc3)C[C@H]1[C@@H]1O[C@@H]12 (stereo partly specified) [Scopolamin-N-oxide hydrobromide] + CCCCNC(=O)OCC#CI [3-iodo-2-propynyl butylcarbamate (IPBC)] | 103 ± 2.2 | 102 ± 1.1
4 | CCN1CCN(C(=O)N[C@@H](C(=O)N[C@@H]2C(=O)N3[C@@H]2SC(C)(C)[C@@H]3C(=O)O)c2ccccc2)C(=O)C1=O [Piperacillin sodium salt] + CCCCNC(=O)OCC#CI [3-iodo-2-propynyl butylcarbamate (IPBC)] | 113 ± 8.6 | 105 ± 6.5
5 | CN(C)CCC[C@@]1(c2ccc(F)cc2)OCc2cc(C#N)ccc21 [Escitalopram oxalate] + CCCCNC(=O)OCC#CI [3-iodo-2-propynyl butylcarbamate (IPBC)] | 76.08 ± 0.48 | 86.6 ± 1.3
6 | CCCC(=O)Nc1ncnc2c1ncn2[C@@H]1O[C@@H]2COP(=O)(O)O[C@H]2[C@H]1OC(=O)CCC [Bucladesine sodium salt] + CCCCNC(=O)OCC#CI [3-iodo-2-propynyl butylcarbamate (IPBC)] | 102 ± 14 | 102 ± 7
7 | CN1CCCC(n2nc(Cc3ccc(Cl)cc3)c3ccccc3c2=O)CC1 (stereo unspecified) [Azelastine hydrochloride] + CCCCNC(=O)OCC#CI [3-iodo-2-propynyl butylcarbamate (IPBC)] | 65.6 ± 4.3 | 92.6 ± 2.8
8 | CN1CCCCC1CCN1c2ccccc2Sc2ccc([S+](C)[O-])cc21 (stereo unspecified) [Mesoridazine besylate] + CCCCNC(=O)OCC#CI [3-iodo-2-propynyl butylcarbamate (IPBC)] | 72.6 ± 2.4 | 89.25 ± 0.52
9 | NC(=O)N/N=C/c1ccc([N+](=O)[O-])o1 [Nitrofural] + CCCCNC(=O)OCC#CI [3-iodo-2-propynyl butylcarbamate (IPBC)] | 89.6 ± 10 | 92.5 ± 5.7
10 | CC(=O)Oc1cccc2c1C(=O)c1c(OC(C)=O)cc(C(=O)O)cc1C2=O [Diacerein] + CCCCNC(=O)OCC#CI [3-iodo-2-propynyl butylcarbamate (IPBC)] | 72.59 ± 0.48 | 75.4 ± 1.6
11 | C=C1C[C@H]2[C@@H]3C=C(C)C4=CC(=O)CC[C@]4(C)[C@H]3CC[C@]2(C)[C@@]1(OC(C)=O)C(C)=O [Melengestrol acetate] + CCCCNC(=O)OCC#CI [3-iodo-2-propynyl butylcarbamate (IPBC)] | 100 ± 2.1 | 102 ± 2.8
12 | Nc1ccc(S(=O)(=O)c2ccc(N)cc2)cc1 [Dapsone] + CCCCNC(=O)OCC#CI [3-iodo-2-propynyl butylcarbamate (IPBC)] | 97.8 ± 2.9 | 101 ± 3.6
13 | CN(C)CCc1c[nH]c2ccc(Cn3cncn3)cc12 [Rizatriptan benzoate] + CCCCNC(=O)OCC#CI [3-iodo-2-propynyl butylcarbamate (IPBC)] | 87.2 ± 0.79 | 91.9
14 | OCCN1CCN(CCCN2c3ccccc3Sc3ccc(Cl)cc32)CC1 [Perphenazine] + CCCCNC(=O)OCC#CI [3-iodo-2-propynyl butylcarbamate (IPBC)] | 4.29 ± 0.48 | 2.94 ± 0.42
15 | Oc1cc(Cl)ccc1Oc1ccc(Cl)cc1Cl [Triclosan] + CCCCNC(=O)OCC#CI [3-iodo-2-propynyl butylcarbamate (IPBC)] | 3.02 ± 0.16 | 2.2 ± 0.1
16 | CC1(C)OC(=O)NC1=O [Dimethadione] + CCCCNC(=O)OCC#CI [3-iodo-2-propynyl butylcarbamate (IPBC)] | 98.3 ± 11 | 98.2 ± 8
17 | N=C(N)NCC1COC2(CCCCC2)O1 (stereo unspecified) [Guanadrel sulfate] + CCCCNC(=O)OCC#CI [3-iodo-2-propynyl butylcarbamate (IPBC)] | 107 ± 4.1 | 104 ± 5
18 | CCC[C@H](N[C@@H](C)C(=O)N1[C@H](C(=O)O)C[C@@H]2CCCC[C@@H]21)C(=O)OCC [Perindopril] + CCCCNC(=O)OCC#CI [3-iodo-2-propynyl butylcarbamate (IPBC)] | 98.8 ± 5.1 | 97.5 ± 3.1
19 | Nc1ccc(C(=O)NCC(=O)O)cc1 [Aminohippuric acid] + CCCCNC(=O)OCC#CI [3-iodo-2-propynyl butylcarbamate (IPBC)] | 85.3 ± 2.1 | 93.5 ± 1.3

Row | Structure (SMILES) | growth yield (40 h) [%] | growth yield (72 h) [%]
20 | COc1ccc(NS(=O)(=O)c2ccc(N)cc2)nn1 [Sulfamethoxypyridazine] + CCCCNC(=O)OCC#CI [3-iodo-2-propynyl butylcarbamate (IPBC)] | 89.1 ± 9.1 | 96 ± 4.1
21 | Cc1c(N(C)CS(=O)(=O)O)c(=O)n(-c2ccccc2)n1C [Dipyrone] + CCCCNC(=O)OCC#CI [3-iodo-2-propynyl butylcarbamate (IPBC)] | 92.4 ± 6.7 | 87.9 ± 5.2
22 | CC(NCCC(c1ccccc1)c1ccccc1)c1ccccc1 (stereo unspecified) [Fendiline hydrochloride] + CCCCNC(=O)OCC#CI [3-iodo-2-propynyl butylcarbamate (IPBC)] | 70.37 ± 0.16 | 93.7 ± 1.4
23 | O=c1[nH]c(=O)n(C2CCCO2)cc1F (stereo unspecified) [Tegafur] + CCCCNC(=O)OCC#CI [3-iodo-2-propynyl butylcarbamate (IPBC)] | 84.98 ± 0.79 | 85.3 ± 1.8
24 | CCN(CC)CCc1nc(-c2ccccc2)no1 [Oxalamine citrate salt] + CCCCNC(=O)OCC#CI [3-iodo-2-propynyl butylcarbamate (IPBC)] | 96.6 ± 11 | 96.7 ± 7.1
25 | CC(C)NC[C@@H](O)COc1cccc2ccccc12 [(R)-Propranolol hydrochloride] + CCCCNC(=O)OCC#CI [3-iodo-2-propynyl butylcarbamate (IPBC)] | 76.9 ± 2.9 | 86.3 ± 1.4
26 | C[C@]12CC[C@@H]3c4ccc(OC(=O)N(CCCl)CCCl)cc4CC[C@H]3[C@@H]1CC[C@@H]2O [Estramustine] + CCCCNC(=O)OCC#CI [3-iodo-2-propynyl butylcarbamate (IPBC)] | 97.8 ± 4.5 | 98.1 ± 4.7
27 | O=c1oc2ccccc2c(O)c1Cc1c(O)c2ccccc2oc1=O [Dicumarol] + CCCCNC(=O)OCC#CI [3-iodo-2-propynyl butylcarbamate (IPBC)] | 92.3 ± 6.5 | 93.2 ± 3
28 | CN1CCN(CCCN2c3ccccc3Sc3ccc(Cl)cc32)CC1 [Prochlorperazine dimaleate] + CCCCNC(=O)OCC#CI [3-iodo-2-propynyl butylcarbamate (IPBC)] | 3.18 | 2.73 ± 0.21
29 | Cc1nc(=O)c2cc(CN(C)c3ccc(C(=O)N[C@@H](CCC(=O)O)C(=O)O)s3)ccc2[nH]1 [Raltitrexed] + CCCCNC(=O)OCC#CI [3-iodo-2-propynyl butylcarbamate (IPBC)] | 91 ± 8.1 | 92.6 ± 4.7
30 | CN1CCN(c2c(F)cc3c(=O)c(C(=O)O)cn(CCF)c3c2F)CC1 [Fleroxacin] + CCCCNC(=O)OCC#CI [3-iodo-2-propynyl butylcarbamate (IPBC)] | 84.98 ± 0.79 | 89.67 ± 0.73
31 | C[C@H](CCC(=O)O)[C@H]1CC[C@H]2[C@@H]3[C@H](O)C[C@@H]4C[C@H](O)CC[C@]4(C)[C@H]3CC[C@]12C [Chenodiol] + CCCCNC(=O)OCC#CI [3-iodo-2-propynyl butylcarbamate (IPBC)] | 79.58 ± 0.48 | 94.5 ± 1.1
32 | NNc1nncc2ccccc12 [Hydralazine hydrochloride] + CCCCNC(=O)OCC#CI [3-iodo-2-propynyl butylcarbamate (IPBC)] | 120 ± 6.8 | 125 ± 11
33 | CC(=O)OCC(CCn1cnc2cnc(N)nc21)COC(C)=O [Famciclovir] + CCCCNC(=O)OCC#CI [3-iodo-2-propynyl butylcarbamate (IPBC)] | 112 ± 8.4 | 108 ± 6
34 | COc1c2occc2c(OC)c2c(=O)cc(C)oc12 [Khellin] + CCCCNC(=O)OCC#CI [3-iodo-2-propynyl butylcarbamate (IPBC)] | 89.1 ± 5.9 | 96.1 ± 4.2
35 | Nc1cc(C(Cl)=C(Cl)Cl)c(S(N)(=O)=O)cc1S(N)(=O)=O [Clorsulon] + CCCCNC(=O)OCC#CI [3-iodo-2-propynyl butylcarbamate (IPBC)] | 86.4 ± 2.2 | 90.8 ± 3.1
36 | CC[C@H](C)C(=O)O[C@H]1CCC=C2C=C[C@H](C)[C@H](CC[C@@H]3C[C@@H](O)CC(=O)O3)[C@H]21 [Mevastatin] + CCCCNC(=O)OCC#CI [3-iodo-2-propynyl butylcarbamate (IPBC)] | 98.6 ± 4.3 | 93.8 ± 1.1
37 | O=S(=O)(O)c1cc(O)ccc1O [Ethamsylate] + CCCCNC(=O)OCC#CI [3-iodo-2-propynyl butylcarbamate (IPBC)] | 91.5 ± 8.3 | 96.2 ± 6.8
38 | c1ccc([C@H]2CN3CCSC3=N2)cc1 [Levamisole hydrochloride] + CCCCNC(=O)OCC#CI [3-iodo-2-propynyl butylcarbamate (IPBC)] | 94.5 ± 2.1 | 97.33 ± 0.21

— the supplement of paper PMC8007513
